Several values for one entry are separate records, joined by “and”; a condition that tells them apart may be missing. Equal entries are not always repeated. Where two headings read alike, the source gives them in different places. For part of these data: Part of at least one peptide drawing is inferred or uncertain, most often the ends. For part of these data: The name of at least one read-out is uncertain. For part of these data: At least one structure is not confirmed: it was looked up by name or label, or the drawing left a doubt.
Columns and labels:
[1] = molecular target: Kv1.3 potassium channels in Jurkat T lymphocytes (Homo sapiens, UniProt P22001); type: cell-based
[2] = tested on: rat brain membrane K channels (primarily Kv1.2); type: binding
[3] = molecular target: Kv1.3 channels in Jurkat T lymphocytes (Homo sapiens, UniProt P22001); type: binding; details: read-out: IC50 Lymphocyte 125I-CTX
Kv1.3 [4] = molecular target: Kv1.3 (Homo sapiens, UniProt P22001); details: read-out: Kd, block of Kv1.3
Kv1.5 = Kv1.5 (Homo sapiens, UniProt P22460); type: cell-based
Kv1.2 = Kv1.2 (Rattus norvegicus, UniProt P63142); type: cell-based
Kv3.1 = Kv3.1 (Mus musculus, UniProt P15388); type: cell-based
Kv1.3 [5] = molecular target: T1, Kv1.3 (Mus musculus, UniProt P16390); type: cell-based
Kv1.3 [6] = molecular target: T1, Kv1.3; type: cell-based; remark: listed apart in the source
Kv1.3(D386→K) = type: cell-based

T1 sequence (P16390 whole entry): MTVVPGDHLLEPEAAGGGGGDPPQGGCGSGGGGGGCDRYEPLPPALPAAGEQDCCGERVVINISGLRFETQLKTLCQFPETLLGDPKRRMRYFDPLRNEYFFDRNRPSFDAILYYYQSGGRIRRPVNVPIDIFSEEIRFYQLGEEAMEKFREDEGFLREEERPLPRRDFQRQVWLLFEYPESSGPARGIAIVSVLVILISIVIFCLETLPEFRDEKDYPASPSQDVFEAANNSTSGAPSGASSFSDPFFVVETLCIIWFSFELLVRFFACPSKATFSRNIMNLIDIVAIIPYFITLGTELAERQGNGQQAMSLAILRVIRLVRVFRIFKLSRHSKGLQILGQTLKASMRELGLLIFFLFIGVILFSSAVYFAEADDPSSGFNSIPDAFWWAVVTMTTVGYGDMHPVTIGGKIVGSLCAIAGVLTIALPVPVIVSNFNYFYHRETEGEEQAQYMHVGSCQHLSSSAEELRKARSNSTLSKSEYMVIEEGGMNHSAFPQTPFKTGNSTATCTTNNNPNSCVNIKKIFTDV
Chain of Kv3.1 (P15388 whole entry): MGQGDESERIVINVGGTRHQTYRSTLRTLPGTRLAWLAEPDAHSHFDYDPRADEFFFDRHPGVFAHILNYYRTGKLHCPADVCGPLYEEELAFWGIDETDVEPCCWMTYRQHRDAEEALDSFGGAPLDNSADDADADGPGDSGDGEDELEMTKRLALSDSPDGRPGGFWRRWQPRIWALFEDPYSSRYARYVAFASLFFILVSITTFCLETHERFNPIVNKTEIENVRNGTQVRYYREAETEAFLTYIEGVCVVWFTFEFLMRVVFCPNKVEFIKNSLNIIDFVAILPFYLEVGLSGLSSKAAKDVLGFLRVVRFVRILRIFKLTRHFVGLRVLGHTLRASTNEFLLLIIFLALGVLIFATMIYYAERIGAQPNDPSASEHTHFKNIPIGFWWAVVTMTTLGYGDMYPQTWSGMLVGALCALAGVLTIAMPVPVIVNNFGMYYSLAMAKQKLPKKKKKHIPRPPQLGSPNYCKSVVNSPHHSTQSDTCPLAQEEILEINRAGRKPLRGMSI
Chain of Kv1.3 potassium channels in Jurkat T lymphocytes (P22001 whole entry): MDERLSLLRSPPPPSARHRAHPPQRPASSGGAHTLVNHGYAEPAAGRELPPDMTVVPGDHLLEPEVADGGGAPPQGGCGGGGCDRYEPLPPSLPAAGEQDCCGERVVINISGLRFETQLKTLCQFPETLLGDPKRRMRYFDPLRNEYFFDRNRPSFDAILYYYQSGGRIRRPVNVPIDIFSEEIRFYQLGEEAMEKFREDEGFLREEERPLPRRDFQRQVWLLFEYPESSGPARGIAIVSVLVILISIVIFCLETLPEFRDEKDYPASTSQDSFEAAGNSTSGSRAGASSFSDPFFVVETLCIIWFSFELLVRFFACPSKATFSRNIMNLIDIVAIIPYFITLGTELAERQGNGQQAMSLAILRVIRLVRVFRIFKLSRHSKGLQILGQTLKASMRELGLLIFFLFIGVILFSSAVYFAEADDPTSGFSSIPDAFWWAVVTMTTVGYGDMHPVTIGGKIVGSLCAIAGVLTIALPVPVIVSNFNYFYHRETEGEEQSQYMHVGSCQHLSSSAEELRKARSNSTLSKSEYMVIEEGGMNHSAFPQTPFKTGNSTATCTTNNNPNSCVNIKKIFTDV
Chain of Kv1.5 (P22460 whole entry): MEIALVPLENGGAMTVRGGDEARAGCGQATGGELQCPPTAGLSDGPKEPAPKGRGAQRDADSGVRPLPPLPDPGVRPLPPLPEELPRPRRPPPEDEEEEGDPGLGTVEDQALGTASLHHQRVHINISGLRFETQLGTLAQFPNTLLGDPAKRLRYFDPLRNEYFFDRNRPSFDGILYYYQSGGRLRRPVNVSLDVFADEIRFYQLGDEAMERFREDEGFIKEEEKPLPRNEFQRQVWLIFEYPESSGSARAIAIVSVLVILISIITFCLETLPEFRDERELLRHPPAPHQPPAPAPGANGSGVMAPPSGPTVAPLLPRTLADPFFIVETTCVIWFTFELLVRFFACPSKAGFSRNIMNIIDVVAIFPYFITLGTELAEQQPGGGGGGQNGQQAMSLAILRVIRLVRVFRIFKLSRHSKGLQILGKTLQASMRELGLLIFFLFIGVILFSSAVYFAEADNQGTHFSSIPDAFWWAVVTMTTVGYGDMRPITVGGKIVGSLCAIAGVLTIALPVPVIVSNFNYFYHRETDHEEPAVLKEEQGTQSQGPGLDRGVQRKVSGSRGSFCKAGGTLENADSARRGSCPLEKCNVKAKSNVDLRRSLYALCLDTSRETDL
Chain of Kv1.2 (P63142 whole entry): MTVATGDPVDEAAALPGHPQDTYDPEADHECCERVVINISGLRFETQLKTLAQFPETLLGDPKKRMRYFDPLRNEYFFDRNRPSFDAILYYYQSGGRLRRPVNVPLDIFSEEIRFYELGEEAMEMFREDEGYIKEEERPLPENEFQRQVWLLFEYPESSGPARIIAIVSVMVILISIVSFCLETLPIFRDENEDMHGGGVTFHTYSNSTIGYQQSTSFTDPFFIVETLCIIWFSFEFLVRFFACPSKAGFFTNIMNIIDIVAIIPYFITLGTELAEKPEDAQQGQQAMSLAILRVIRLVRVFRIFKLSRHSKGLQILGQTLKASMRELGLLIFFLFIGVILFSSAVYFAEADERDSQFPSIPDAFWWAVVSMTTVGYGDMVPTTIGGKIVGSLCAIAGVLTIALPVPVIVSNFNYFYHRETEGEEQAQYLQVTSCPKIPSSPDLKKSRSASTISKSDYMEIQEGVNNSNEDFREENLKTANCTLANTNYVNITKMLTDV
Chain of Kv1.3 channels in Jurkat T lymphocytes (P22001 whole entry): as the sequence (P22001 whole entry) above
Chain of Kv1.3 (Homo sapiens, UniProt P22001) (P22001 whole entry): as above

| Compound | Equipotent Molar Ration (Analog IC50 /ShK IC50) Lymphocyte [1] | reduction of affinity (IC50) for Kv1.3 relative to ShK toxin [1] [fold] | Equipotent Molar Ration (Analog IC50 /ShK IC50) Rat brain [2] | IC50 Ratio [2] | ΔF [2] | IC50 ([2]; read-out: IC50 Rat Brain 125I-CTX) [nM] | IC50 [3] [nM] | Kd (Kv1.3 [4]) [nM] | Kd (Kv1.5; read-out: Kd, Kv1.5) [nM] | Kd (Kv1.5; read-out: Kv1.5 (Kd)) [nM] | Kd (Kv1.2) [nM] | Kd (Kv3.1; read-out: Kd, Kv3.1) [nM] | Kd (Kv3.1; read-out: Kv3.1 (Kd)) [nM] | IC50 (Kv1.3 [5]; read-out: IC50, block of Kv1.3 channels) [nM] | Kd (Kv1.3 [5]; read-out: Kv1.3 (Kd)) | Kd (Kv1.3 [6]) [nM] | Kd (Kv1.3 [6]; pH 6) [nM] | Kd (Kv1.3 [6]; pH 7.6) [nM] | Difference of Free Energy of Binding [2] | ΔΔG (coupling energy), mutant cycle (Kv1.3(D386→K)) [kcal/mol] |
| --- | --- | --- | --- | --- | --- | --- | --- | --- | --- | --- | --- | --- | --- | --- | --- | --- | --- | --- | --- | --- |
| CC[C@H](C)[C@@H]1NC(=O)[C@@H](NC(=O)[C@H](CO)NC(=O)[C@@H](N)CCCNC(=N)N)CSSC[C@@H](C(=O)O)NC(=O)[C@H]([C@@H](C)O)NC(=O)CNC(=O)[C@@H]2CSSC[C@@H]3NC(=O)[C@H](CCC(N)=O)NC(=O)[C@H](Cc4ccccc4)NC(=O)[C@H](C)NC(=O)[C@H]([C@@H](C)O)NC(=O)[C@H](CSSC[C@H](NC(=O)[C@H](Cc4ccccc4)NC(=O)[C@H](CO)NC(=O)[C@H](CC(C)C)NC(=O)[C@H](CCCNC(=N)N)NC(=O)[C@H](Cc4ccc(O)cc4)NC(=O)[C@H](CCCCN)NC(=O)[C@H](CCSC)NC(=O)[C@H](CO)NC(=O)[C@H](Cc4c[nH]cn4)NC(=O)[C@H](CCCCN)NC3=O)C(=O)N[C@@H](CCCNC(=N)N)C(=O)N[C@@H](CCCCN)C(=O)N[C@@H]([C@@H](C)O)C(=O)N2)NC(=O)[C@H](CCC(N)=O)NC(=O)[C@H](CO)NC(=O)[C@H](CCCCN)NC(=O)[C@@H]2CCCN2C(=O)[C@H]([C@@H](C)CC)NC(=O)[C@H]([C@@H](C)O)NC(=O)[C@H](CC(=O)O)NC1=O [R11Q] | 42 | 42 | 1.8 | 0.8 | -0.13 | 18 | 0.64 |  |  |  |  |  |  |  |  |  |  |  |  |  |
| CC[C@H](C)[C@@H]1NC(=O)[C@@H](NC(=O)[C@H](CO)NC(=O)[C@@H](N)CCCNC(=N)N)CSSC[C@@H](C(=O)O)NC(=O)[C@H]([C@@H](C)O)NC(=O)CNC(=O)[C@@H]2CSSC[C@@H]3NC(=O)[C@H](CCC(N)=O)NC(=O)[C@H](Cc4ccccc4)NC(=O)[C@H](C)NC(=O)[C@H]([C@@H](C)O)NC(=O)[C@H](CSSC[C@H](NC(=O)[C@H](Cc4ccccc4)NC(=O)[C@H](CO)NC(=O)[C@H](CC(C)C)NC(=O)[C@H](CCCNC(=N)N)NC(=O)[C@H](Cc4ccc(O)cc4)NC(=O)[C@H](CCCCN)NC(=O)[C@H](CCSC)NC(=O)[C@H](CO)NC(=O)[C@H](Cc4cnc[nH]4)NC(=O)[C@H](CCCCN)NC3=O)C(=O)N[C@@H](CCCNC(=N)N)C(=O)N[C@@H](CCCCN)C(=O)N[C@@H]([C@@H](C)O)C(=O)N2)NC(=O)[C@H](CCCNC(=N)N)NC(=O)[C@H](CO)NC(=O)[C@H](CCCCN)NC(=O)[C@@H]2CCCN2C(=O)[C@H]([C@@H](C)CC)NC(=O)[C@H]([C@@H](C)O)NC(=O)[C@H](CC(=O)O)NC1=O [ShK] |  |  |  |  |  |  |  | ~0.1 | > 1000 | > 100 | 9 | > 1000 | > 100 | 0.012 | ~0.01 nM and 0.012 nM and 0.011 nM | 0.7 ± 0.5 | 0.3 ± 0.08 | 0.6 ± 0.6 |  |  |
| CC[C@H](C)[C@@H]1NC(=O)[C@@H](NC(=O)[C@H](CO)NC(=O)[C@@H](N)CCCNC(=N)N)CSSC[C@@H](C(=O)O)NC(=O)[C@H]([C@@H](C)O)NC(=O)CNC(=O)[C@@H]2CSSC[C@@H]3NC(=O)[C@H](CCC(N)=O)NC(=O)[C@H](Cc4ccccc4)NC(=O)[C@H](C)NC(=O)[C@H]([C@@H](C)O)NC(=O)[C@H](CSSC[C@H](NC(=O)[C@H](Cc4ccccc4)NC(=O)[C@H](CO)NC(=O)[C@H](CC(C)C)NC(=O)[C@H](CCCNC(=N)N)NC(=O)[C@H](Cc4ccc(O)cc4)NC(=O)[C@H](CCCCN)NC(=O)[C@H](CCSC)NC(=O)[C@H](CO)NC(=O)[C@H](Cc4c[nH]cn4)NC(=O)[C@H](CCCCN)NC3=O)C(=O)N[C@@H](CCCNC(=N)N)C(=O)N[C@@H](CCCCN)C(=O)N[C@@H]([C@@H](C)O)C(=O)N2)NC(=O)[C@H](C)NC(=O)[C@H](CO)NC(=O)[C@H](CCCCN)NC(=O)[C@@H]2CCCN2C(=O)[C@H]([C@@H](C)CC)NC(=O)[C@H]([C@@H](C)O)NC(=O)[C@H](CC(=O)O)NC1=O [R11A] |  |  |  | 2.0 |  |  |  |  |  |  |  |  |  |  |  |  |  |  | 0.41 | 1.4 |
